Where “and” joins values, the source holds several entries; their conditions need not be identical. Equal entries are not always repeated. The whole screen tested about 150,000 compounds, of which about 540 (0.36%) showed an effect of 50% or more. This is one part of the list.
Test system: Plasmodium falciparum
Assay: Primary screen in NF54 nanoGlo assay, in single point, at 2uM, 72h; a lower Z score goes with more inhibition
Assay type: functional, Erythrocyte
Conditions: timepoint 72 hour

Structure (SMILES) | % Inhibition [%] | Z score | % Inhibition (2 µM)
CCC1(CC)NC(=O)N(Cc2nc(C)c(C)o2)C1=O | -15 | 1.81 | 
C[C@]1(O)CCN(C(=O)c2ccc(N3CCCC3=O)cc2)C[C@H]1O | -7 | 0.84 | 
CN(c1ccc(S(N)(=O)=O)cn1)[C@H]1CCOC1 | -30 | 3.47 | 
COc1cccc(C(=O)NCC2(O)CCCC2)c1 | -10 | 1.36 | 
CCOC(=O)[C@@H]1CCCCN1C(=O)Cn1cc(NC(=O)c2ccccc2)cn1 | -13 | 2.1 | 
Cc1cccc(OC(C)C(=O)NC2CC3CCC2C3)c1 (configuration not stated) | -10 | 0.96 | 
CNC(=O)[C@@H]1CN(Cc2ccc(Br)o2)C[C@H]1COC | -5 | 0.77 | 
CCCc1cc(C(=O)N[C@H]2COCC[C@@H]2OC)cs1 | -6 | 0.75 | 
CCN=C(NCCc1nc(C)no1)NCc1sccc1C | -11 | 1.04 | 
CNS(=O)(=O)c1cccc(NC(=O)N2CCOCC[C@@H]2C)c1C | 5 | -0.77 | 
CC(C)N(Cc1ccccn1)C(=O)c1csc(-c2ccco2)n1 | -6 | 0.91 | 
CCCC(=O)NC1CCCN(C(C)c2nnnn2C2CCCCC2)C1 (configuration not stated) | -8 | 0.76 | 
Cc1ccc(C(=O)Nc2cccc(COc3ccc4c(c3)OCO4)c2)cc1S(C)(=O)=O | -3 | 0.51 | 
Cc1cc(F)ccc1[C@@H]1CCCN1C(=O)c1cnc2n1CCOC2 | -1 | 0.2 | 
CN1CCN(C)[C@@H](CNc2nccnc2N(C)C)C1 | -6 | 0.87 | 
CC(C)(NS(C)(=O)=O)C(=O)N1CCc2c(Cl)cc(F)cc2C1 | -18 | 1.96 | 
CCOc1cc(C(=O)Nc2ccc3nc4c(c(Nc5ccc(OC)c(OC)c5)c3c2)CCCC4)cc(OCC)c1OCC | 93 | -11.16 | 
CC(=O)N1CCO[C@H](C(=O)Nc2cccc(-n3cc[nH]c3=O)c2)C1 | -3 | 0.57 | 
COCc1ncc(CNc2ncnc3sc(C)c(C)c23)c(N)n1 | -6 | 1.12 | 
CC(=O)Nc1cccc(N2C(=O)[C@H](CCC(=O)N3CCc4ccccc4C3)N=C2O)c1 |  |  | -4% and -8%
Cc1scc(C(=O)NC2C3CC2N(c2nc(C4CCCC4)ns2)C3)c1C (configuration not stated) | -5 | 0.65 | 

Structure (SMILES) | % Inhibition [%] | Z score | % Inhibition (2 µM)
O=C(Cc1ccc(Br)cc1)N(Cc1ccco1)[C@H]1CCS(=O)(=O)C1 | -2 | 0.28 | 
CC(C)Oc1ccc(-c2cc(C(F)(F)F)n3nc(-c4ccccc4)c(-c4ccccc4)c3n2)cc1 | -15 | 1.87 | 
CC(=O)N[C@@H]1CN(Cc2c[nH]nc2-c2ccc(F)cc2)C[C@H]1CO | -20 | 3.4 | 
COc1cc(N[C@H]2CCCN(c3ccc(C#N)nc3)C2)cc(OC)c1 | -9 | 0.97 | 
Cc1cc(C(=O)Nc2nc(C(=O)Nc3nccs3)co2)no1 | -9 | 1.65 | 
O=S(=O)(c1cnn(CC2CC2)c1)N1CCNC[C@H]1c1cccc(Cl)c1 | -14 | 1.4 | 
Cc1cccc(C)c1OCCC(=O)NS(=O)(=O)c1cccnc1 | -7 | 1.16 | 
Cc1cc(C)n(CCN2CCCN(C(=O)c3cccc(C(F)(F)F)c3)CC2)n1 | -13 | 2.46 | 
COc1cccc(C(=O)NCc2cccnc2-c2ccc(F)cc2)c1 | -13 | 1.65 | 
Cc1cc2c(cc3n2C[C@@](C)(C(=O)NC2CCCCCC2)N(CCN2CCCCCC2)C3=O)o1 | -13 | 2.36 | 
CCc1csc(NC(=O)C(C)(C)NC(=O)OC(C)(C)C)n1 | -3 | 0.46 | 
CC(C)(C)c1cc(-n2c(-c3c[nH]c4ccccc34)nc3ccccc32)cc(C(C)(C)C)c1O | -43 | 5.03 | 
C=CCn1cc(CNCc2ncc(C)c(O)c2C)c(C)n1 | 0 | 0.06 | 
CC1COC(CO)CN1CCCCC1CCOCC1 (configuration not stated) | -7 | 0.74 | 
CCOC(=O)[C@@H](NC(=O)c1c[nH]c(C)cc1=O)C1CCCCCC1 | -1 | 0.17 | 
CC[C@H](NC(=O)Cc1sc(N)nc1C)c1cnn(C)c1 | 0 | 0.06 | 
COCc1noc(CNC(=O)C[C@H](C)n2ccnc2)n1 | -6 | 0.75 | 
Cc1ccc(-n2nc3ccc(NC(=O)c4cc5ccccc5o4)cc3n2)cc1Cl | 2 | -0.37 | 
Cc1noc(C)c1CN(C)C[C@H](O)COCc1ccc2c(c1)OCO2 | -2 | 0.2 | 
O=C(CCCc1nnc2ccccn12)NCCc1ccccc1 | -6 | 0.7 | 
CCOCC(=O)N1CCN(Cc2ccc3ncccc3c2)C[C@H](O)C1 | -11 | 1.98 | 

Structure (SMILES) | % Inhibition [%] | Z score | % Inhibition (2 µM)
Cc1cc(C(=O)N2CCC[C@H](C(=O)c3ccc4c5c(cccc35)CC4)C2)nc(N)n1 | -4 | 0.45 | 
CCNC(=O)N(C1CCN(C)CC1)C1CN(C(=O)Nc2ccc(C)c(C)c2)C1 | -2 | 0.31 | 
Cc1cn2cccc(C(=O)NCC[C@H]3CCCOC3)c2n1 | 2 | -0.34 | 
Cc1nc(N(CCC(N)=O)CCC(N)=O)sc1C | 3 | -0.43 | 
CNC(=O)[C@@H]1C[C@@H](NCc2cccc(C(F)(F)F)c2)CN1Cc1cccc(Cl)c1 | -3 | 0.36 | 
CC(C)n1cnnc1CC1CN(C(=O)Nc2cc(F)cc(F)c2)C1 | -5 | 0.86 | 
Cc1cc(C#N)cc(C)c1OCc1ncnn1C(C)(C)C | -13 | 1.2 | 
O=C1C2CCCCC2C(=O)N1Cc1ccccn1 (configuration not stated) | -6 | 1.23 | 
O=C1C[C@@H](c2ccccc2)N(C(=O)Cc2cccnc2)CCCCCCN1 | 7 | -1.08 | 
Cn1cc(CCC(=O)N2CCN(c3cc(=O)[nH]c(N)n3)CC2)cn1 | -4 | 0.8 | 
Cc1nc(-c2cccc(C)c2F)c2cnn(C)c2n1 | -1 | 0.11 | 
COc1cc(NC(=O)c2ccc3nsnc3c2)cc(OC)c1OC | -6 | 0.92 | 
COC(=O)CN(C(=O)C1CCC1)C(C)C | -5 | 0.45 | 
CC(C)Oc1ccc(C(=O)N[C@@H](C)C2CC2)nc1 | -3 | 0.41 | 
COc1cccc([C@H]2OCCn3c(-c4cccc(C)c4)c4c(=O)n(C)c(=O)n(C)c4c32)c1O | 3 | -0.49 | 
COc1ccc(Cn2c(C)c(C3=CCN(S(=O)(=O)c4cc(C)c(C)cc4C)CC3)c3ccccc32)cc1 | 0 | 0.05 | 
CCS(=O)(=O)Nc1ccccc1-c1nc(CNC(=O)C(C)C)c(C)o1 | 4 | -0.74 | 
COC1CCCCC1Nc1ccc2nccnc2n1 (configuration not stated) | 4 | -0.48 | 
CC(=O)N1CC(C(=O)NC2(CNC(=O)[C@@H](C)C3CC3)CCCCC2)C1 | 19 | -2.45 | 
CCn1ccc(C(=O)N2CCCN(c3nnc4ccc(Cl)cn34)CC2)n1 | -21 | 2.04 | 
CC(C)[C@H](C)N(C1CC1)S(=O)(=O)c1ccc(OCC(F)(F)F)nc1 | -8 | 1.56 | 

Structure (SMILES) | % Inhibition [%] | Z score | % Inhibition (2 µM)
CCCCC1CCCC1NC(=O)C(C)OCC (configuration not stated) | -3 | 0.3 | 
O=C(CN1CCC[C@@H]1C(=O)O)NC(c1ccccc1)c1cccc(Cl)c1 (some centres not stated) | -17 | 2.26 | 
Cc1oc(-c2ccsc2)nc1CN(C)[C@@H](C)c1cccs1 | -6 | 1.09 | 
CC(c1ccco1)N(C)C(=O)NC1C2CCCOC2C1(C)C (configuration not stated) | -10 | 0.99 | 
O=C1NC[C@@]2(CCCN(C(=O)c3[nH]cnc3-c3ccccc3)C2)O1 | -2 | 0.38 | 
COc1ccccc1S(=O)(=O)N1CCC(c2cccs2)CC1 | 4 | -0.69 | 
O=S(=O)(CCC(F)(F)F)N1CC[C@H](Oc2ncc(Br)cn2)C1 | -10 | 1.49 | 
Cc1cc(C)c(-c2cn(Cc3ccccn3)nn2)c(-n2cccn2)c1 | 1 | -0.17 | 
Cc1noc(Cl)c1CC(=O)N1CCCC(C)(C)CC1 | 44 | -6.85 | 
CCC(=O)Nc1ccc(N2CCCN(C(=O)Nc3ccccc3F)CC2)c(C(=O)N2CCCCC2)c1 | -7 | 1.05 | 
COC(=O)c1ccc(C)c2c1N(Cc1nnn(C)n1)CCC2 | -10 | 1.35 | 
Cc1nn(CC(=O)N2CCOC[C@@H]2CCO)cc1-c1ccccc1 | -7 | 1.14 | 
CCCN(CC1CC1)C(=O)c1cnn(-c2ncc(C)c(-c3cccs3)n2)c1C | 4 | -0.43 | 
C[C@@H](c1ccc(Cl)cc1)N(C(=O)c1ccc(C(N)=O)cn1)C1CC1 | 6 | -1.15 | 
Cc1oc2c(c1C(=O)NC1CCCCC1)CN(Cc1ccccc1)CC2 | -9 | 0.9 | 
O=S(=O)(c1ccc2c(c1)OCCO2)N1CCO[C@H](c2ccc(F)cc2)C1 | 33 | -4.39 | 
O=C(NCC1CCN(c2cc(-c3cccnc3)n[nH]2)CC1)c1ccncc1 | -12 | 1.18 | 
c1cnc2cc(-c3noc(C4CCCCCC4)n3)ccc2n1 | -14 | 2.33 | 
Cc1nn(C)c2[nH]nc(NC(=O)c3ccccn3)c12 | -14 | 1.96 | 
Cc1c(C#N)c(NC(=O)CN2CCCCCC2)n(C[C@H]2CCCO2)c1C | -9 | 1.77 | 
O=C(Nc1ccn(-c2ccccc2)n1)NC1CC1c1cccc(Cl)c1 (configuration not stated) | -11 | 1.42 | 

Source: ChEMBL document CHEMBL4888484, “Replenishing the malaria drug discovery pipeline: Screening and hit evaluation of the MMV Hit Generation Library 1 (HGL1) against asexual blood stage Plasmodium falciparum ,using a nano luciferase reporter read-out” (2022)
